Experimental data from the supplement of paper PMC3334620.
In all, about 33,000 sequences were measured (“E-score (-0.5 to 0.5)”: median about -0.01, highest 2% from about 0.26 on). The list shows a part of the results.

These sequences were tested against Ste12 (UniProt P13574) (assay: PBM E-score (8-mer binding enrichment) (E-score (-0.5 to 0.5)); higher = stronger / more preferred TF binding; most listed sequences are background and not binding sites). Conditions: protein concentration: 200 nM; construct: GST-DNA-binding domain.
Experimental: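 Universal 'all 10-mer' protein binding microarrays (Agilent AMADID 015681) probed with GST-tagged S. cerevisiae TFs (full-length or DBD) made by in vitro transcription/translation (PURExpress), about 100-200 nM. Bound TF was detected with fluorescent anti-GST. Each ungapped 8-mer (which stands for itself and its reverse complement) is scored by the PBM enrichment score (E-score), a modified Wilcoxon-Mann-Whitney statistic from -0.5 to +0.5, computed with the Universal PBM Analysis Suite. Scale: above 0.35 generally sequence-specific binding.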

GTGGCGCA was tested. Which “PBM E-score” value did it give?
The value was 0.0163.

For TCCTGAAA, which “PBM E-score” value is on record?
The value was 0.25.

How did the “PBM E-score” value turn out when AGGTTATC was run?
The value was -0.095.

With CCGTCCAC as the sequence, how does the “PBM E-score” value read?
The value was 0.0274.

How did the “PBM E-score” value turn out when AGACTGTA was run?
The value was -0.113.

ATCACGTC was tested. Which “PBM E-score” value did it give?
The value was -0.137.

For AATGAAAA, which “PBM E-score” value is on record?
The value was 0.292.

How did the “PBM E-score” value turn out when AATGGTGG was run?
Its value is 0.0525.

How did the “PBM E-score” value turn out when ACTGTCGG was run?
Its value is -0.199.

Which “PBM E-score” value does the source give for ACAGTATC here?
Its value is -0.0327.

For AGCTAACT, which “PBM E-score” value is on record?
The value was -0.0183.

GAATCAGA was tested. Which “PBM E-score” value did it give?
Its value is 0.201.

For AGATAGAC, which “PBM E-score” value is on record?
Its value is -0.174.

For ATATATGC, which “PBM E-score” value is on record?
The value was 0.239.

For ACGCTTGG, which “PBM E-score” value is on record?
Its value is -0.293.

With CTGCTTGA as the sequence, how does the “PBM E-score” value read?
Its value is -0.109.

Which “PBM E-score” value does the source give for CAAGATTC here?
The value was -0.0244.

ATCTGGGA was tested. Which “PBM E-score” value did it give?
Its value is -0.0311.

Which “PBM E-score” value does the source give for CAAGGGCG here?
Its value is -0.246.

With CTCCTTCC as the sequence, how does the “PBM E-score” value read?
Its value is -0.168.

For ACGCAGAT, which “PBM E-score” value is on record?
Its value is -0.0413.

CGCGCATC was tested. Which “PBM E-score” value did it give?
Its value is -0.00798.

How did the “PBM E-score” value turn out when ATGAATAA was run?
The value was 0.0153.

Which “PBM E-score” value does the source give for GACGGACC here?
Its value is -0.134.

AGGGAACT was tested. Which “PBM E-score” value did it give?
The value was -0.0814.

For GCTATGGA, which “PBM E-score” value is on record?
Its value is -0.0305.

How did the “PBM E-score” value turn out when AGCTACGG was run?
Its value is -0.168.

With TCGCGAGA as the sequence, how does the “PBM E-score” value read?
Its value is 0.0787.

Which “PBM E-score” value does the source give for AATAACGG here?
Its value is 0.164.

Which “PBM E-score” value does the source give for GACGATGC here?
The value was -0.137.

For CCACCCAA, which “PBM E-score” value is on record?
Its value is 0.0281.

For GCAACACC, which “PBM E-score” value is on record?
The value was 0.0245.

With CAAAGGAC as the sequence, how does the “PBM E-score” value read?
The value was -0.217.

With ATTTTTAA as the sequence, how does the “PBM E-score” value read?
Its value is 0.28.

How did the “PBM E-score” value turn out when CGATGGTA was run?
Its value is -0.0983.

ACGCGCCA was tested. Which “PBM E-score” value did it give?
Its value is -0.00466.

Which “PBM E-score” value does the source give for AGTCAAGC here?
The value was -0.107.

CAACAAGG was tested. Which “PBM E-score” value did it give?
The value was 0.0782.

For CTGTGCAC, which “PBM E-score” value is on record?
Its value is -0.145.

Which “PBM E-score” value does the source give for AAAAATGA here?
Its value is 0.247.

Which “PBM E-score” value does the source give for CGAAACCG here?
The value was 0.258.

With CAACTATC as the sequence, how does the “PBM E-score” value read?
Its value is 0.164.

Which “PBM E-score” value does the source give for GCCACAGA here?
Its value is -0.252.

For AATGGGCA, which “PBM E-score” value is on record?
Its value is 0.0995.

With CTCCATCA as the sequence, how does the “PBM E-score” value read?
The value was -0.0062.

GGTGGCAC was tested. Which “PBM E-score” value did it give?
The value was -0.0283.

CTCCTGTC was tested. Which “PBM E-score” value did it give?
Its value is -0.0854.

Which “PBM E-score” value does the source give for ATAAGGAG here?
Its value is -0.00103.

GCCGTTAC was tested. Which “PBM E-score” value did it give?
Its value is 0.0829.

Which “PBM E-score” value does the source give for TCTAATAA here?
Its value is 0.0364.

ACGTATGC was tested. Which “PBM E-score” value did it give?
Its value is -0.099.

With AGCCACCA as the sequence, how does the “PBM E-score” value read?
The value was 0.0794.

How did the “PBM E-score” value turn out when ATATATAG was run?
The value was 0.184.

With AAGGGTGG as the sequence, how does the “PBM E-score” value read?
Its value is -0.112.

How did the “PBM E-score” value turn out when ATTGAGGA was run?
Its value is -0.041.

GATCAACC was tested. Which “PBM E-score” value did it give?
The value was -0.032.

How did the “PBM E-score” value turn out when TAAGAACA was run?
Its value is 0.256.

ACACAGTG was tested. Which “PBM E-score” value did it give?
The value was -0.154.

For GTTCTTTA, which “PBM E-score” value is on record?
Its value is 0.0601.

GATACGCA was tested. Which “PBM E-score” value did it give?
The value was -0.0118.

For GGCAAGAA, which “PBM E-score” value is on record?
The value was 0.0412.

Which “PBM E-score” value does the source give for GGGGCACA here?
Its value is 0.0337.

Which “PBM E-score” value does the source give for GAGCAGGA here?
Its value is -0.14.

GTTCGCTA was tested. Which “PBM E-score” value did it give?
The value was -0.0318.

ATTCATGC was tested. Which “PBM E-score” value did it give?
Its value is 0.137.

How did the “PBM E-score” value turn out when ACCCTGAA was run?
Its value is 0.0664.

With AGCAACGA as the sequence, how does the “PBM E-score” value read?
Its value is 0.0712.

With TCGCTCAA as the sequence, how does the “PBM E-score” value read?
Its value is 0.0959.

Which “PBM E-score” value does the source give for TCGCAAAA here?
Its value is 0.115.

For GGCGATAC, which “PBM E-score” value is on record?
Its value is -0.118.

For CCAGGGGA, which “PBM E-score” value is on record?
Its value is -0.0964.

CTTACCGA was tested. Which “PBM E-score” value did it give?
Its value is -0.0109.

AAGCATGA was tested. Which “PBM E-score” value did it give?
Its value is 0.0507.

How did the “PBM E-score” value turn out when TCGCGACA was run?
Its value is 0.0485.

AGAATTTA was tested. Which “PBM E-score” value did it give?
Its value is 0.159.

For TCGTTTAA, which “PBM E-score” value is on record?
The value was 0.155.

With AATGATGA as the sequence, how does the “PBM E-score” value read?
The value was 0.135.

Which “PBM E-score” value does the source give for CTGGGATA here?
The value was -0.0846.

For AACCTCAC, which “PBM E-score” value is on record?
The value was 0.0575.

With CCACCACG as the sequence, how does the “PBM E-score” value read?
Its value is -0.0423.

Which “PBM E-score” value does the source give for GCCAAGCC here?
The value was -0.167.

For CCAGTCTC, which “PBM E-score” value is on record?
The value was -0.15.

For ACTGCGCT, which “PBM E-score” value is on record?
Its value is 0.0133.

TCGTACCA was tested. Which “PBM E-score” value did it give?
The value was -0.0257.

For ACGGATTA, which “PBM E-score” value is on record?
The value was 0.0543.

Which “PBM E-score” value does the source give for AATGTGAA here?
The value was 0.212.

With CTAAACCA as the sequence, how does the “PBM E-score” value read?
The value was -0.00415.

ATATCATC was tested. Which “PBM E-score” value did it give?
Its value is 0.141.

How did the “PBM E-score” value turn out when ATAGGGAC was run?
Its value is -0.141.

With GCCTCGAA as the sequence, how does the “PBM E-score” value read?
Its value is 0.0608.

How did the “PBM E-score” value turn out when TAGGCCTA was run?
Its value is -0.15.

How did the “PBM E-score” value turn out when GCGTTGCA was run?
The value was -0.0206.

For AAAGCCTG, which “PBM E-score” value is on record?
Its value is -0.0934.

For GCTACCAA, which “PBM E-score” value is on record?
The value was -0.104.

GCCGCGCC was tested. Which “PBM E-score” value did it give?
Its value is -0.0977.

Which “PBM E-score” value does the source give for AGATAGTG here?
The value was 0.0758.

Which “PBM E-score” value does the source give for ACTGGAGG here?
Its value is 0.0707.

With AGGCTTCA as the sequence, how does the “PBM E-score” value read?
The value was -0.183.

With ATGTTCCA as the sequence, how does the “PBM E-score” value read?
The value was 0.18.

Which “PBM E-score” value does the source give for CCTAGAAG here?
Its value is -0.0953.

How did the “PBM E-score” value turn out when CTGAATTC was run?
The value was 0.0563.

How did the “PBM E-score” value turn out when ACTCTGGA was run?
Its value is 0.0587.

Which “PBM E-score” value does the source give for AATTCTGT here?
The value was 0.113.

For GCCGAACC, which “PBM E-score” value is on record?
Its value is 0.0313.

How did the “PBM E-score” value turn out when AACAATTA was run?
Its value is 0.297.

GGTGGGAC was tested. Which “PBM E-score” value did it give?
Its value is -0.0137.

With AACTATCC as the sequence, how does the “PBM E-score” value read?
The value was -0.156.

CATCTGAC was tested. Which “PBM E-score” value did it give?
Its value is -0.222.

With CTACTTAC as the sequence, how does the “PBM E-score” value read?
The value was 0.099.
